The values below come from article PMC5681660, “Reduced hepatitis B and D viral entry using clinically applied drugs as novel inhibitors of the bile acid transporter NTCP” (Scientific Reports, 2017).

Counter-ions that a name gives are not always drawn. Like-named read-outs stand apart in the source and are kept apart here.

Assay [1] deals with T1, human NTCP (Homo sapiens, UniProt Q14973).
T1 sequence (Q14973 1-349): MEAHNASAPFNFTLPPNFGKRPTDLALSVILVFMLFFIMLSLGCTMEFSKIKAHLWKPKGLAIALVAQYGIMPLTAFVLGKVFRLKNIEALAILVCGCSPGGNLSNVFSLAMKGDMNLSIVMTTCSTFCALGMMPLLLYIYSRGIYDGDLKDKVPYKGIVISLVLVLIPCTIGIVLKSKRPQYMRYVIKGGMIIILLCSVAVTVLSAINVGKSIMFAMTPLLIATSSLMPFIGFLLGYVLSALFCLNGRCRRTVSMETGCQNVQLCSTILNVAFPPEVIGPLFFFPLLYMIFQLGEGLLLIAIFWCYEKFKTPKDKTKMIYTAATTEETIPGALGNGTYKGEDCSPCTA
Kind of assay: Screening taurocholate uptake assay (96-well, [14C]taurocholate, 10 µM drug). The note with it: for remaining activity at 10 µM: 10 min, read-out: %NTCP activity.

In assay [2] the target is T1, human NTCP. The assay is described as follows: Screening fluorescent competitive Myrcludex B-FITC binding assay (96-well, 10 µM drug).
[3] abbreviates: Prestwick library screen, Myrcludex B-FITC binding, 10 µM drug.
The mark [4] stands for this setting: screen, 10 µM drug, Myrcludex B-FITC binding.
[5] abbreviates: 0.5 h, read-out: %NTCP binding, screen, 10 µM drug, Myrcludex B-FITC binding.
Where [6] appears, read: Prestwick library screen, 10 µM drug, Myrcludex B-FITC binding.

With `CCC(=O)O[C@]1(C(=O)SCF)[C@H](C)C[C@H]2[C@@H]3C[C@H](F)C4=CC(=O)C=C[C@]4(C)[C@@]3(F)[C@@H](O)C[C@@]21C` [Fluticasone propionate], the remaining activity at 10 µM at human NTCP [1] was determined as 66.1%; at human NTCP [2] (0.5 h, read-out: %NTCP binding), 113%.
The matching figures for `COCCCC/C(=N\OCCN)c1ccc(C(F)(F)F)cc1` [Fluvoxamine maleate]: 96% and 87.7%.
The corresponding values for `Nc1nc(=O)c2nc(CNc3ccc(C(=O)N[C@@H](CCC(=O)O)C(=O)O)cc3)cnc2[nH]1` [Folic acid] are 115% and 86.3%.
With `Nc1nc(=O)c2c([nH]1)NCC(CNc1ccc(C(=O)N[C@@H](CCC(=O)[O-])C(=O)[O-])cc1)N2C=O.[Ca+2]` (some centres unmarked) [Folinic acid calcium salt], the “%NTCP activity” value at human NTCP [1] (Prestwick library screen, [14C]taurocholate uptake, 10 µM drug) is listed as 106.303%. Also, the “%NTCP binding” value at human NTCP [2] (setting [3]) is 93.8027%.
Regarding `Cc1cn[nH]c1` [Fomepizole], the remaining activity at 10 µM was 128% at human NTCP [1] and 88.5% at human NTCP [2] (0.5 h, read-out: %NTCP binding).
On to `C[C@]12CCC(=O)C(O)=C1CC[C@@H]1[C@@H]2CC[C@]2(C)C(=O)CC[C@@H]12` [Formestane], for which the remaining activity at 10 µM was found to be 103% at human NTCP [1] and 83.1% on human NTCP [2] (0.5 h, read-out: %NTCP binding).
Take `COc1ccc(C[C@@H](C)NC[C@H](O)c2ccc(O)c(NC=O)c2)cc1.COc1ccc(C[C@@H](C)NC[C@H](O)c2ccc(O)c(NC=O)c2)cc1.O=C(O)/C=C/C(=O)O` [Formoterol fumarate]: the “%NTCP activity” value on human NTCP [1] came to 118.412%. Also, the “%NTCP binding” value on human NTCP [2] (setting [3]) amounted to 87.3803%.
In the case of `O=C(O)c1ccccc1OP(=O)(O)O` [Fosfosal], the remaining activity at 10 µM on human NTCP [1] worked out at 91.4%; at human NTCP [2] (0.5 h, read-out: %NTCP binding) it was 104%.
Turning to `CCC(=O)O[C@@H](O[P@](=O)(CCCCc1ccccc1)CC(=O)N1C[C@H](C2CCCCC2)C[C@H]1C(=O)O)C(C)C` [Fosinopril], the remaining activity at 10 µM on human NTCP [1] came out at 150%; on human NTCP [2] (0.5 h, read-out: %NTCP binding) it was 88.3%.
Turning to `C[C@]12CC[C@@H]3c4ccc(O)cc4C[C@@H](CCCCCCCCC[S+]([O-])CCCC(F)(F)C(F)(F)F)[C@H]3[C@@H]1CC[C@@H]2O` (some centres unmarked) [Fulvestrant], the remaining activity at 10 µM on human NTCP [1] amounted to 53.7%; on human NTCP [2] (0.5 h, read-out: %NTCP binding), 83.1%.
The matching figures for `NS(=O)(=O)c1cc(C(=O)O)c(NCc2ccco2)cc1Cl` [Furosemide]: 122% and 82.2%.
`CC(=O)O[C@H]1C[C@@]2(C)[C@@H](C[C@@H](O)[C@H]3[C@@]4(C)CC[C@@H](O)[C@@H](C)[C@@H]4CC[C@@]32C)/C1=C(\CCC=C(C)C)C(=O)O` [Fusidic acid sodium salt]: the remaining activity at 10 µM at human NTCP [1] was determined as 60.7%; on human NTCP [2] (0.5 h, read-out: %NTCP binding), 49.9%.
Take `Cl.Cl.Fc1ccc(C(OCCN2CCN(CCCc3ccccc3)CC2)c2ccc(F)cc2)cc1` [GBR 12909 dihydrochloride]: the “%NTCP activity” value at human NTCP [1] (screen, 10 µM drug, [14C]taurocholate uptake) is 59.478%. For the same compound, on human NTCP [2] (setting [4]), the “%NTCP binding” value was found to be 41.933%.
As for `NCC1(CC(=O)O)CCCCC1` [Gabapentin], the remaining activity at 10 µM was found to be 64% at human NTCP [1] and 83.9% at human NTCP [2] (setting [5]).
In the case of `COc1ccc2c3c1O[C@H]1C[C@@H](O)C=C[C@@]31CCN(C)C2` [Galanthamine hydrobromide], the remaining activity at 10 µM on human NTCP [1] amounted to 118%; on human NTCP [2] (0.5 h, read-out: %NTCP binding, Prestwick library screen, Myrcludex B-FITC binding, 10 µM drug) it was 86.8%.
As to `CC[N+](CC)(CC)CCOc1cccc(OCC[N+](CC)(CC)CC)c1OCC[N+](CC)(CC)CC` [Gallamine triethiodide], the remaining activity at 10 µM amounted to 104% at human NTCP [1] and 70.1% on human NTCP [2] (0.5 h, read-out: %NTCP binding).
Regarding `Nc1nc(O)c2ncn(COC(CO)CO)c2n1` [Ganciclovir], the remaining activity at 10 µM at human NTCP [1] came to 87%; on human NTCP [2] (0.5 h, read-out: %NTCP binding), 109%.
The matching figures for `COc1c(N2CCNC(C)C2)c(F)cc2c(=O)c(C(=O)O)cn(C3CC3)c12` (centres unmarked) [Gatifloxacin]: 85.5% and 119%.
Consider `COc1cc2ncnc(Nc3ccc(F)c(Cl)c3)c2cc1OCCCN1CCOCC1` [Gefitinib], for which the remaining activity at 10 µM turned out to be 133% on human NTCP [1] and 74.1% on human NTCP [2] (0.5 h, read-out: %NTCP binding).
The corresponding values for `Nc1ccn([C@@H]2O[C@H](CO)[C@@H](O)C2(F)F)c(=O)n1` [Gemcitabine] are 94.2% and 97%.
Turning to `Cc1ccc(C)c(OCCCC(C)(C)C(=O)O)c1` [Gemfibrozil], the remaining activity at 10 µM was 113% on human NTCP [1] and 58.1% on human NTCP [2] (0.5 h, read-out: %NTCP binding).
With `C#C[C@]1(O)CC[C@H]2[C@@H]3CCC4=CC(=O)CCC4=C3C=C[C@@]21CC` [Gestrinone], the remaining activity at 10 µM on human NTCP [1] is 46%; at human NTCP [2] (setting [5]) it was 113%.
Regarding `Cl.O=C(OCC(O)CO)c1ccccc1Nc1ccnc2cc(Cl)ccc12` (centres unmarked) [Glafenine hydrochloride], the “%NTCP activity” value on human NTCP [1] (Prestwick library screen, 10 µM drug, [14C]taurocholate uptake) is listed as 94.297%. For the same compound, on human NTCP [2] (setting [6]), the “%NTCP binding” value worked out at 91.2482%.
For the compound `CCC1=C(C)CN(C(=O)NCCc2ccc(S(=O)(=O)NC(=O)N[C@H]3CC[C@H](C)CC3)cc2)C1=O` [Glimepiride], the remaining activity at 10 µM at human NTCP [1] was determined as 72.2%; at human NTCP [2] (0.5 h, read-out: %NTCP binding), 82.3%.
`Cc1cnc(C(=O)NCCc2ccc(S(=O)(=O)NC(=O)NC3CCCCC3)cc2)cn1` [Glipizide]: the remaining activity at 10 µM on human NTCP [1] turned out to be 47.4%; on human NTCP [2] (0.5 h, read-out: %NTCP binding) it was 92.8%.
As to `COc1ccc2c(c1)C(=O)N(CCc1ccc(S(=O)(=O)NC(=O)NC3CCCCC3)cc1)C(=O)C2(C)C` [Gliquidone], the remaining activity at 10 µM at human NTCP [1] was 54.2%; at human NTCP [2] (0.5 h, read-out: %NTCP binding), 114%.
In the case of `CCC1(c2ccc(N)cc2)CCC(=O)NC1=O` (centres unmarked) [Glutethimide, para-amino], at human NTCP [1], the “%NTCP activity” value was found to be 33.9561%. The “%NTCP binding” value at human NTCP [2] (setting [3]) is 79.4709%.
On to `C[N+]1(C)CCC(OC(=O)C(O)(c2ccccc2)C2CCCC2)C1` (centres unmarked) [Glycopyrrolate], for which the remaining activity at 10 µM at human NTCP [1] was 95.3%; on human NTCP [2] (0.5 h, read-out: %NTCP binding), 108%.
The matching figures for `CN1C2CCCC1CC(NC(=O)c1nn(C)c3ccccc13)C2` (centres unmarked) [Granisetron]: 131% and 87.5%.
The matching figures for `COC1=CC(=O)C[C@@H](C)[C@]12Oc1c(Cl)c(OC)cc(OC)c1C2=O` [Griseofulvin]: 85.5% and 44.7%.
With `COc1ccccc1O` [Guaiacol], the remaining activity at 10 µM on human NTCP [1] came out at 81.9%; on human NTCP [2] (0.5 h, read-out: %NTCP binding), 104%.
The matching figures for `COc1ccccc1OCC(O)CO` (centres unmarked) [Guaifenesin]: 97.5% and 71.1%.
The matching figures for `N=C(N)N/N=C/c1c(Cl)cccc1Cl` [Guanabenz acetate]: 35.5% and 98.2%.
On to `N=C(N)NCC1COC2(CCCCC2)O1.N=C(N)NCC1COC2(CCCCC2)O1.O=S(=O)(O)O` (centres unmarked) [Guanadrel sulfate], for which the “%NTCP activity” value on human NTCP [1] is given as 89.1345%. Also, the “%NTCP binding” value at human NTCP [2] (setting [4]) was 87.7743%.
For `N=C(N)NC(=O)Cc1c(Cl)cccc1Cl` [Guanfacine hydrochloride], the remaining activity at 10 µM on human NTCP [1] stood at 70.9%; on human NTCP [2] (0.5 h, read-out: %NTCP binding) it was 54.1%.
Turning to `CC1(C)O[C@@H]2C[C@H]3[C@@H]4CCC5=CC(=O)CC[C@]5(C)[C@@]4(F)[C@@H](O)C[C@]3(C)[C@]2(C(=O)CCl)O1` [Halcinonide], the remaining activity at 10 µM was 82.2% on human NTCP [1] and 80.8% at human NTCP [2] (0.5 h, read-out: %NTCP binding).
The matching figures for `CCCCN(CCCC)CCC(O)c1cc2c(Cl)cc(Cl)cc2c2cc(C(F)(F)F)ccc12` (centres unmarked) [Halofantrine hydrochloride]: 119% and 79.5%.
The corresponding values for `Clc1cc(Cl)c(OCC#CI)cc1Cl` [Haloprogin] are 94.7% and 72%.
The corresponding values for `CC(N)CCCC(C)(C)O` (centres unmarked) [Heptaminol hydrochloride] are 105% and 118%.
For `Oc1c(Cl)cc(Cl)c(Cl)c1Cc1c(O)c(Cl)cc(Cl)c1Cl` [Hexachlorophene], the remaining activity at 10 µM at human NTCP [1] was 49.8%; at human NTCP [2] (0.5 h, read-out: %NTCP binding), 99.4%.
Take `C[N+](C)(C)CCCCCC[N+](C)(C)C.O.O.[Br-].[Br-]` [Hexamethonium dibromide dihydrate]: the “%NTCP activity” value at human NTCP [1] was found to be 87.5079%. Besides, at human NTCP [2] (setting [3]), the “%NTCP binding” value is given as 105.655%.
`CCCCC(CC)CN1CN(CC(CC)CCCC)CC(C)(N)C1` (centres unmarked) [Hexetidine]: the remaining activity at 10 µM at human NTCP [1] came out at 114%; at human NTCP [2] (0.5 h, read-out: %NTCP binding), 71.5%.
On to `CC(CNC1CCCCC1)OC(=O)c1ccccc1` (centres unmarked) [Hexylcaine hydrochloride], for which the remaining activity at 10 µM on human NTCP [1] is 108%; on human NTCP [2] (0.5 h, read-out: %NTCP binding) it was 70%.
Regarding `CN1CCCN(C(c2ccccc2)c2ccc(Cl)cc2)CC1.Cl.Cl` (centres unmarked) [Homochlorcyclizine dihydrochloride], on human NTCP [1], the “%NTCP activity” value was 73.8774%. In addition, the “%NTCP binding” value on human NTCP [2] (setting [6]) is listed as 84.2321%.
Consider `CC1CC(OC(=O)c2ccccc2O)CC(C)(C)C1` (centres unmarked) [Homosalate], for which the remaining activity at 10 µM at human NTCP [1] was 54.6%; at human NTCP [2] (0.5 h, read-out: %NTCP binding), 80.2%.
As for `CCN(CC)CCNc1ccc(CO)c2sc3ccccc3c(=O)c12` [Hycanthone], the remaining activity at 10 µM on human NTCP [1] was 66%; at human NTCP [2] (0.5 h, read-out: %NTCP binding) it was 80.1%.
